We go through 2 molecules from patent US20130089549A1 (SICHUAN UNIVERSITY, published 2013).

Assay [1] concerns the target T1, B cell activating factor (BAFF) standard (UniProt Q9Y275 part only).
T1 construct: also called BLyS; TALL-1
As to the kind of experiment: SPR, BIAcore T100; BAFF Trap coupled to chip, BAFF as analyte. The text has this:
(§1) Using BIAcore T100 to detect binding capacity of BAFF Trap and BAFF in vitro conditions, the binding constant was analysis by BIAcore T100 Evaluation Software. Also, the standards of BAFF R-Fc and TACI-Fc were used as a control substance.
Background: In SPR one partner is held on a chip, and binding of the other changes the refractive index at the surface.

In assay [2] the target is T1, B cell activating factor (BAFF) standard. The assay is described as follows: SPR, BIAcore T100; Br3-Fc coupled to chip, BAFF as analyte.
From the text: as §1

T1 sequence (Q9Y275 134-285 limits assumed): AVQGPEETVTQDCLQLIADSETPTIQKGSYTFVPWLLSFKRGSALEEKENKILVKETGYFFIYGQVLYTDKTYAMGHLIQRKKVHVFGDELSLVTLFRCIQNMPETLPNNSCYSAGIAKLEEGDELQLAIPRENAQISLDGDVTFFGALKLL

B1: fusion protein BAFF Trap (TACI CRD2 - Br3 CRD - IgG1 Fc) (Fc fusion)
chain: LSCRKEQGKFYDHLLRDCISCASICGQHPKQCAYFCENKLRSPGRDAPAPTPCVPAECFDLLVRHCVACGLLRTPRPKPAGASSPAP[human IgG1 Fc not written out]
notes: also called BT; TACI-Br3-IgG1 Fc
A word on the Kd: it is the concentration at which binding is half-saturated. A high value points to weaker binding. The koff is the first-order rate constant of dissociation. B1: in assay [1], the Kd was 12.7 nM and the koff stood at 0.000141 s⁻¹.

B2: Br3-Fc standard (Fc fusion)
chain: not shown
notes: Control standard; also called BAFF R-Fc; not shown: Fc part of the standard
Usually kon stands for a measure of how fast the partners come together. A lower kon goes with slow association. On to B2, for which, in assay [2], the Kd stood at 34 nM, the koff came to 0.000679 s⁻¹ and the kon was 19900 M⁻¹ s⁻¹.
